31 molecules from paper PMC9911399, “Two distinct binding modes provide the RNA-binding protein RbFox with extraordinary sequence specificity” can be followed below.

Changes are numbered by the printed parent chain; changes in the protein carry UniProt numbers. This is one part of the list.

Test [1] concerns the target T1, RBFOX1 RRM (Homo sapiens, UniProt Q9NWB1 109-208).
T1 sequence: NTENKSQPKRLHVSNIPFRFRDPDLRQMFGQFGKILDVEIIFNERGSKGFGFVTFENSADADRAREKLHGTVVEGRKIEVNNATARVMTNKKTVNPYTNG
Put plainly: EMSA; HiTS-Eq, 1 nM pool, 10 min; buffer printed only for the single-RNA assays: 10 mM Tris pH 7.5, 150 mM NaCl, 3.4 mM EDTA, 0.001% NP-40, 30 C. The note with it: tags: His6 N-terminal (pET28a); label: 5' 32P. The procedure, abridged:
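These values rest on relative association constants, computed from read-count changes of each RNA species versus the control reaction and normalised to the cognate motif. Reads came from free RNA recovered by 8% native PAGE after purified RbFox RRM (wild type or mutant) at increasing concentrations was equilibrated for 10 min in 50 µL with 1 nM of a 5′-radiolabelled pool with 7 randomized nucleotides and DNA-annealed flanks.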
On the technique in general: In EMSA bound probe runs differently from free probe, usually more slowly.

Test [2] concerns the target T1, RBFOX1 RRM. The experiment in a line: competition; 10 mM Tris pH 7.5, 150 mM NaCl, 3.4 mM EDTA, 0.001% NP-40, 30 C. The note with it: tags: His6 N-terminal (pET28a).

B1: AAUGUUA (DNA:RNA)
RNA: GGGAGACCGGAAUUCAGAUUGUCCAAUGUUAUUAAAUCCCGUCGUAGCCACCA
DNA 1: CAATCTGAATTCCGGTCTCCC
DNA 2: TGGTGGCTACGACGGGATT
For the molecule B1, the binding signal in the test with RBFOX1 RRM [1] was 0.0054 KA relative to UGCAUGU. In the case of UGCAAGU (ssRNA), in the test with RBFOX1 RRM [2], the binding signal came to 335 nM.

B2: UUAAUAA (DNA:RNA)
RNA: B1 RNA with A25U, A26U, U27A, G28A, U30A
DNA 1: CAATCTGAATTCCGGTCTCCC
DNA 2: TGGTGGCTACGACGGGATT
For B2, in the test with RBFOX1 RRM [1], the binding signal is 0.0029 KA relative to UGCAUGU.

B3: CACAGCU (DNA:RNA)
RNA: B1 RNA with A25C, U27C, G28A, U29G, U30C, A31U
DNA 1: CAATCTGAATTCCGGTCTCCC
DNA 2: TGGTGGCTACGACGGGATT
B3: in the test with RBFOX1 RRM [1], the binding signal was 0.00163 KA relative to UGCAUGU.

B4: AUUGCUU (DNA:RNA)
RNA: B1 RNA with A26U, U29C, A31U
DNA 1: CAATCTGAATTCCGGTCTCCC
DNA 2: TGGTGGCTACGACGGGATT
Regarding B4, in the test with RBFOX1 RRM [1], the binding signal is 0.0107 KA relative to UGCAUGU.

B5: UCGUGCA (DNA:RNA)
RNA: B1 RNA with A25U, A26C, U27G, G28U, U29G, U30C
DNA 1: CAATCTGAATTCCGGTCTCCC
DNA 2: TGGTGGCTACGACGGGATT
Turning to B5, in the test with RBFOX1 RRM [1], the binding signal was 0.0239 KA relative to UGCAUGU.

B6: AUCCUAG (DNA:RNA)
RNA: B1 RNA with A26U, U27C, G28C, U30A, A31G
DNA 1: CAATCTGAATTCCGGTCTCCC
DNA 2: TGGTGGCTACGACGGGATT
Consider B6, for which the binding signal with RBFOX1 RRM [1] is 0.00318 KA relative to UGCAUGU.

B7: GAGCUUC (DNA:RNA)
RNA: B1 RNA with A25G, U27G, G28C, A31C
DNA 1: CAATCTGAATTCCGGTCTCCC
DNA 2: TGGTGGCTACGACGGGATT
As to B7, the binding signal with RBFOX1 RRM [1] is 0.0194 KA relative to UGCAUGU.

B8: UGCCACG (DNA:RNA)
RNA: GGGAGACCGGAAUUCAGAUUGUCCUGCCACGUUAAAUCCCGUCGUAGCCACCA
DNA 1: CAATCTGAATTCCGGTCTCCC
DNA 2: TGGTGGCTACGACGGGATT
On to B8, for which the binding signal in the test with RBFOX1 RRM [1] was 0.0198 KA relative to UGCAUGU.

B9: CCGUGAC (DNA:RNA)
RNA: GGGAGACCGGAAUUCAGAUUGUCCCCGUGACUUAAAUCCCGUCGUAGCCACCA
DNA 1: CAATCTGAATTCCGGTCTCCC
DNA 2: TGGTGGCTACGACGGGATT
Turning to B9, the binding signal in the test with RBFOX1 RRM [1] was 0.00491 KA relative to UGCAUGU.

B10: GGUAGGC (DNA:RNA)
RNA: B9 RNA with C25G, C26G, G27U, U28A, A30G
DNA 1: CAATCTGAATTCCGGTCTCCC
DNA 2: TGGTGGCTACGACGGGATT
For B10, the binding signal in the test with RBFOX1 RRM [1] was 0.00776 KA relative to UGCAUGU.

B11: GCGGCAG (DNA:RNA)
RNA: B9 RNA with C25G, U28G, G29C, C31G
DNA 1: CAATCTGAATTCCGGTCTCCC
DNA 2: TGGTGGCTACGACGGGATT
Take B11: the binding signal with RBFOX1 RRM [1] was 0.0169 KA relative to UGCAUGU.

B12: AUCCUAA (DNA:RNA)
RNA: B1 RNA with A26U, U27C, G28C, U30A
DNA 1: CAATCTGAATTCCGGTCTCCC
DNA 2: TGGTGGCTACGACGGGATT
On to B12, for which the binding signal with RBFOX1 RRM [1] is 0.00156 KA relative to UGCAUGU.

B13: ACGUGGG (DNA:RNA)
RNA: B9 RNA with C25A, A30G, C31G
DNA 1: CAATCTGAATTCCGGTCTCCC
DNA 2: TGGTGGCTACGACGGGATT
Turning to B13, the binding signal in the test with RBFOX1 RRM [1] was 0.0119 KA relative to UGCAUGU.

B14: AGACGGA (DNA:RNA)
RNA: B1 RNA with A26G, U27A, G28C, U29G, U30G
DNA 1: CAATCTGAATTCCGGTCTCCC
DNA 2: TGGTGGCTACGACGGGATT
For the molecule B14, in the test with RBFOX1 RRM [1], the binding signal is 0.00506 KA relative to UGCAUGU.

B15: CAGGGGG (DNA:RNA)
RNA: B9 RNA with C26A, U28G, A30G, C31G
DNA 1: CAATCTGAATTCCGGTCTCCC
DNA 2: TGGTGGCTACGACGGGATT
Regarding B15, in the test with RBFOX1 RRM [1], the binding signal is 0.01 KA relative to UGCAUGU.

B16: CCACUGA (DNA:RNA)
RNA: B1 RNA with A25C, A26C, U27A, G28C, U30G
DNA 1: CAATCTGAATTCCGGTCTCCC
DNA 2: TGGTGGCTACGACGGGATT
As for B16, the binding signal with RBFOX1 RRM [1] is 0.0104 KA relative to UGCAUGU.

B17: CGGGUAA (DNA:RNA)
RNA: B1 RNA with A25C, A26G, U27G, U30A
DNA 1: CAATCTGAATTCCGGTCTCCC
DNA 2: TGGTGGCTACGACGGGATT
For the molecule B17, the binding signal with RBFOX1 RRM [1] was 0.0192 KA relative to UGCAUGU.

B18: CGUGUUC (DNA:RNA)
RNA: B1 RNA with A25C, A26G, A31C
DNA 1: CAATCTGAATTCCGGTCTCCC
DNA 2: TGGTGGCTACGACGGGATT
Turning to B18, the binding signal with RBFOX1 RRM [1] was 0.0132 KA relative to UGCAUGU.

B19: UUCUCAA (DNA:RNA)
RNA: B9 RNA with C25U, C26U, G27C, G29C, C31A
DNA 1: CAATCTGAATTCCGGTCTCCC
DNA 2: TGGTGGCTACGACGGGATT
As for B19, the binding signal with RBFOX1 RRM [1] was 0.00416 KA relative to UGCAUGU.

B20: GAACCGG (DNA:RNA)
RNA: B8 RNA with U25G, G26A, C27A, A29C, C30G
DNA 1: CAATCTGAATTCCGGTCTCCC
DNA 2: TGGTGGCTACGACGGGATT
B20: in the test with RBFOX1 RRM [1], the binding signal was 0.0117 KA relative to UGCAUGU.

B21: AGAAUCG (DNA:RNA)
RNA: B8 RNA with U25A, C27A, C28A, A29U
DNA 1: CAATCTGAATTCCGGTCTCCC
DNA 2: TGGTGGCTACGACGGGATT
For the molecule B21, the binding signal in the test with RBFOX1 RRM [1] was 0.00981 KA relative to UGCAUGU.

B22: UUCCGCA (DNA:RNA)
RNA: B8 RNA with G26U, A29G, G31A
DNA 1: CAATCTGAATTCCGGTCTCCC
DNA 2: TGGTGGCTACGACGGGATT
On to B22, for which the binding signal with RBFOX1 RRM [1] was 0.00914 KA relative to UGCAUGU.

B23: GGGACUC (DNA:RNA)
RNA: B9 RNA with C25G, C26G, U28A, G29C, A30U
DNA 1: CAATCTGAATTCCGGTCTCCC
DNA 2: TGGTGGCTACGACGGGATT
As to B23, the binding signal in the test with RBFOX1 RRM [1] was 0.0264 KA relative to UGCAUGU.

B24: GACCUCG (DNA:RNA)
RNA: B8 RNA with U25G, G26A, A29U
DNA 1: CAATCTGAATTCCGGTCTCCC
DNA 2: TGGTGGCTACGACGGGATT
Regarding B24, in the test with RBFOX1 RRM [1], the binding signal is 0.00932 KA relative to UGCAUGU.

B25: CGGUACG (DNA:RNA)
RNA: B8 RNA with U25C, C27G, C28U
DNA 1: CAATCTGAATTCCGGTCTCCC
DNA 2: TGGTGGCTACGACGGGATT
As to B25, the binding signal with RBFOX1 RRM [1] was 0.0111 KA relative to UGCAUGU.

B26: GGUCCAU (DNA:RNA)
RNA: B8 RNA with U25G, C27U, A29C, C30A, G31U
DNA 1: CAATCTGAATTCCGGTCTCCC
DNA 2: TGGTGGCTACGACGGGATT
Regarding B26, the binding signal with RBFOX1 RRM [1] was 0.00705 KA relative to UGCAUGU.

B27: GUCGCGU (DNA:RNA)
RNA: B1 RNA with A25G, A26U, U27C, U29C, U30G, A31U
DNA 1: CAATCTGAATTCCGGTCTCCC
DNA 2: TGGTGGCTACGACGGGATT
For the molecule B27, the binding signal in the test with RBFOX1 RRM [1] was 0.0218 KA relative to UGCAUGU.

B28: UACAGAC (DNA:RNA)
RNA: B9 RNA with C25U, C26A, G27C, U28A
DNA 1: CAATCTGAATTCCGGTCTCCC
DNA 2: TGGTGGCTACGACGGGATT
B28: the binding signal in the test with RBFOX1 RRM [1] was 0.00317 KA relative to UGCAUGU.

B29: UGACUUC (DNA:RNA)
RNA: B8 RNA with C27A, A29U, C30U, G31C
DNA 1: CAATCTGAATTCCGGTCTCCC
DNA 2: TGGTGGCTACGACGGGATT
For B29, the binding signal in the test with RBFOX1 RRM [1] was 0.0183 KA relative to UGCAUGU.

B30: AUUUUGC (DNA:RNA)
RNA: B1 RNA with A26U, G28U, U30G, A31C
DNA 1: CAATCTGAATTCCGGTCTCCC
DNA 2: TGGTGGCTACGACGGGATT
On to B30, for which the binding signal in the test with RBFOX1 RRM [1] was 0.0144 KA relative to UGCAUGU.
